Experimental data published in the antibiotic and cytotoxicity screens of Wong et al. (2023).
The list shows a part of the results.

Columns and labels:
HSkMC = human skeletal muscle cells; assay: cytotoxicity call (relative viability < 0.9); settings: 10 µM
HepG2 = assay: cytotoxicity call (relative viability < 0.9); settings: 10 µM
S. aureus RN4220 = assay: growth inhibition call (relative growth <= 0.2); settings: 50 µM

Structure (SMILES) | cytotoxicity call (HSkMC) | cytotoxicity call (HepG2) | growth inhibition call (S. aureus RN4220)
C[C@H]1CN([C@@H](C)CO)C(=O)c2cc(NS(=O)(=O)c3cccs3)ccc2O[C@@H]1CN(C)S(C)(=O)=O | inactive | inactive | inactive
Cc1ccc2ncc(-c3ccc4cc(C)ccc4n3)cc2c1 | inactive | inactive | inactive
CC(C)CC#Cc1cnc2c(c1)C(=O)N([C@H](C)CO)C[C@@H](C)[C@H](CN(C)C(=O)CCN1CCCCC1)O2 | inactive | inactive | inactive
COCCCNC(=O)[C@@]1(Sc2ccc(C)cc2)CC(=O)N(Cc2cc(C(F)(F)F)cc(C(F)(F)F)c2)[C@@H]1c1ccc(CO)cc1 | inactive | inactive | inactive
COCC(=O)N(C)C[C@H]1Oc2cc(C#Cc3cccnc3)ccc2S(=O)(=O)N([C@@H](C)CO)C[C@H]1C | inactive | inactive | inactive
C[C@@H]1CCCCO[C@H](CN(C)C(=O)CCC(F)(F)F)[C@H](C)CN([C@@H](C)CO)C(=O)c2cc(NC(=O)c3ccccc3)ccc2O1 | inactive | inactive | inactive
COc1ccc(S(=O)(=O)Nc2ccc3c(c2)C(=O)N([C@H](C)CO)C[C@@H](C)[C@H](CN(C)C(=O)Nc2ccccc2)OCCCC[C@@H](C)O3)cc1 | inactive | inactive | inactive
COc1ccc(S(=O)(=O)N(C)C[C@@H]2Oc3ccc(NS(=O)(=O)c4ccccc4)cc3CC(=O)N([C@H](C)CO)C[C@@H]2C)cc1 | inactive | inactive | inactive
CC(C)NC(=O)N(C)C[C@H]1Oc2ccc(NC(=O)Cn3cnnn3)cc2C(=O)N([C@H](C)CO)C[C@H]1C | inactive | inactive | inactive
CC(C)NC(=O)N(C)C[C@@H]1Oc2cc(-c3ccccc3F)ccc2S(=O)(=O)N([C@@H](C)CO)C[C@H]1C | inactive | inactive | inactive
O=C(C[C@@H]1C[C@H]2c3cc(NC(=O)c4ccc5c(c4)OCO5)ccc3O[C@H]2[C@H](CO)O1)NCCc1ccccc1 | inactive | inactive | inactive
C[C@@H](O)CN1C(=S)S[C@@H]2CS(=O)(=O)C[C@@H]21 | inactive | inactive | inactive
CN1CCN(C(=O)C[C@H]2CC[C@@H]3[C@@H](COc4ccc(NC(=O)c5ccc(F)c(F)c5)cc4C(=O)N3C)O2)CC1 | inactive | inactive | inactive
Cc1cc2nc3c(=O)[nH]c(=O)nc-3n(C[C@H](O)[C@H](O)[C@H](O)COP(=O)(O)O)c2cc1C | inactive | inactive | inactive
COc1ccc(S(=O)(=O)Nc2ccc3c(c2)C(=O)N([C@H](C)CO)C[C@@H](C)[C@@H](CN(C)S(C)(=O)=O)O3)cc1 | inactive | inactive | inactive
CC(C)NC(=O)N(C)C[C@@H]1Oc2ccc(NC(=O)CCCN(C)C)cc2C(=O)N([C@@H](C)CO)C[C@@H]1C | inactive | inactive | inactive
COCC(=O)N1[C@H](C(=O)N2CCN(C)CC2)[C@@H](CO)[C@@H]2Cn3c(ccc(C4=CCCCC4)c3=O)[C@@H]21 | inactive | inactive | inactive
CCCNC(=O)C[C@H]1CC[C@@H]2[C@@H](COc3ccc(NC(=O)c4ccc5c(c4)OCO5)cc3C(=O)N2C)O1 | inactive | active | inactive
C[C@H]1CN([C@@H](C)CO)S(=O)(=O)c2ccc(C#CC(C)(C)O)cc2O[C@H]1CN(C)C(=O)C1CCCCC1 | inactive | inactive | inactive
C[C@@H]1CCCCO[C@H](CN(C)CC2CCCCC2)[C@H](C)CN([C@H](C)CO)C(=O)c2cc(NC(=O)Nc3ccc(F)cc3)ccc2O1 | active | active | inactive
C[C@@H]1CN([C@H](C)CO)C(=O)c2cccc(NC(=O)Nc3cccc4ccccc34)c2O[C@@H]1CN(C)C(=O)Nc1ccc(F)cc1 | active | inactive | inactive
COc1ccc(NC(=O)N(C)C[C@H]2Oc3ccc(NC(=O)Cn4cnnn4)cc3CC(=O)N([C@H](C)CO)C[C@H]2C)cc1 | inactive | inactive | inactive
Cc1ccc(S(=O)(=O)N(C)C[C@H]2OCCCC[C@H](C)Oc3ccc(NC(=O)Cc4ccccc4)cc3C(=O)N([C@@H](C)CO)C[C@H]2C)cc1 | inactive | inactive | inactive
Cc1ccc(S(=O)(=O)Nc2ccc3c(c2)C(=O)N([C@@H](C)CO)C[C@@H](C)[C@@H](CN(C)S(=O)(=O)c2ccccc2)O3)cc1 | inactive | inactive | inactive
COc1ccc([Si](C)(C)[C@@H]2[C@@H](CC(=O)N3Cc4ccccc4C[C@H]3CO)O[C@]3(C(=O)N(Cc4cccc(N5C(=O)c6cccc7cccc5c67)c4)c4ccccc43)[C@H]2C)cc1 | inactive | inactive | inactive
C[C@@H]1CN([C@H](C)CO)C(=O)c2cc(NS(=O)(=O)c3cn(C)cn3)ccc2O[C@@H]1CN(C)Cc1ccccc1 | inactive | inactive | inactive
C[C@@H]1CCCCO[C@@H](CN(C)Cc2ccc3c(c2)OCO3)[C@@H](C)CN([C@@H](C)CO)C(=O)c2cc(NS(=O)(=O)c3ccccc3)ccc2O1 | inactive | inactive | inactive
O=C(c1ccc(-n2cnnn2)cc1)N1CCN([C@H]2CCS(=O)(=O)C2)CC1 | inactive | inactive | inactive
